The record followed here is paper PMC3975686 (Journal of proteome research, 2013).

Holding throughout (assay): ITC
In experiment [1] the target is ezrin C-terminal fragment (residues 477-586) (human, UniProt P15311 477-586).
In experiment [2] the target is T1, IQGAP2 Repeats (IQGAP2 residues 211-591) (human, UniProt Q13576 211-591).
T1 sequence (looked up): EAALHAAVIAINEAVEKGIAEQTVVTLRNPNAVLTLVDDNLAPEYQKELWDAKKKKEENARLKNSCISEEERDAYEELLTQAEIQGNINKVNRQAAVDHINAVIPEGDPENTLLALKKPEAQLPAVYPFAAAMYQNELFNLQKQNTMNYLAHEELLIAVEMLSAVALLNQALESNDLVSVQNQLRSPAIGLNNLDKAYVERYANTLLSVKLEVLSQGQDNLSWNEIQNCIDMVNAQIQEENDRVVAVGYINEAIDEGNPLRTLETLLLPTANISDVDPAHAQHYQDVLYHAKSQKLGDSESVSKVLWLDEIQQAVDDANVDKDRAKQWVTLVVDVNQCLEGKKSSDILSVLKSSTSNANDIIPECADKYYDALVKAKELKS

The target in experiment [3] is IQGAP1 Repeats (IQGAP1 residues 156-672), tag removed (human, UniProt P46940 156-672).

UniProt P15311, sequence (P15311 477-586): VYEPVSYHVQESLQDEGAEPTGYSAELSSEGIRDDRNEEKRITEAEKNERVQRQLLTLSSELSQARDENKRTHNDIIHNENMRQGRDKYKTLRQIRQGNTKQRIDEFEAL

B1: ezrin FERM domain ([…]) (domain or fragment)
chain: not shown
In general, stoichiometry N refers to a count of units in the complex or per binding partner. In experiment [1], B1 registered a dH of -47.9 ± 1.33 kcal/mol. Further, the “stoichiometry N” value in experiment [1] was 0.815 ± 0.0155. For the same molecule, the Ka worked out at 143000 M⁻¹ in experiment [2] and 171000 M⁻¹ in experiment [3].
